Source: paper PMC6161846
No constants are given. Whether binding was seen depends on the method and setting. Some binding calls cover weakened binding; strength is not graded here. For some of these results: Sequences can lack the tags named with a protein.

Protein sequences, listed by entry. Tags and fused reporters are not part of them. Lines headed by an entry give the natural chain unless they say otherwise; changes in a name come on top. Residues count along the entry.
UniProt P11940: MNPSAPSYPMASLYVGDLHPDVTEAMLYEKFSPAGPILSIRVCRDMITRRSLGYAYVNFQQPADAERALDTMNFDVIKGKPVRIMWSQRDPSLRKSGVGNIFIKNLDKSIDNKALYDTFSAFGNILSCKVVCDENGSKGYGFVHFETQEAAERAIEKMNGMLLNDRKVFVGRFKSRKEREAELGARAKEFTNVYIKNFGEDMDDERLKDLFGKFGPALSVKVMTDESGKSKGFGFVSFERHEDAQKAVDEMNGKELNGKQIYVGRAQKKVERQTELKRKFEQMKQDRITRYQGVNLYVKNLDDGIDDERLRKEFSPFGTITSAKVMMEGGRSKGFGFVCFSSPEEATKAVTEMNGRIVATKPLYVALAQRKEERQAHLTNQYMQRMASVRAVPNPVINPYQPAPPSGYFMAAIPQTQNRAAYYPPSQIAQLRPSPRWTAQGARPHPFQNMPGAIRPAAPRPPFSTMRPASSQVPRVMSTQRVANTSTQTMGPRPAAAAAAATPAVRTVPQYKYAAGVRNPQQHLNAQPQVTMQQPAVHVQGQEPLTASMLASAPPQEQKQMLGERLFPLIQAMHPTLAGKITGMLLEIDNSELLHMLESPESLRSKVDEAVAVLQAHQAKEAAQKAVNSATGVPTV
GAL4-/PABP fusion protein, PABP 1-192 (human (cDNA from chondrocytes)): residues 1-192 of P11940
GAL4-/PABP fusion protein, PABP 182-371 (human (cDNA from chondrocytes)): residues 182-371 of P11940
GAL4-/PABP fusion protein, PABP 392-636 (human (cDNA from chondrocytes)): residues 392-636 of P11940
GAL4-/PABP fusion protein, PABP 392-553 (human (cDNA from chondrocytes)): residues 392-553 of P11940

T1: recombinant ADAM15 cytoplasmic domain (cytoADAM) (UniProt Q13444)
T1 sequence: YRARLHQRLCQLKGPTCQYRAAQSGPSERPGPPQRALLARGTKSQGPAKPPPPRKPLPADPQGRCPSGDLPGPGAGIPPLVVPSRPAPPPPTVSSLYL

B1: NFκB/cytoADAM fusion protein (cytoplasmic tail of ADAM15 in the pCMV-AD prey vector) (domain or fragment, UniProt Q13444-2 717-814)
chain: T1 sequence

Columns and labels:
[1] = molecular target: T1, recombinant ADAM15 cytoplasmic domain (cytoADAM); experiment: ELISA; cytoplasmic domain of ADAM15 coated on a 96-well plate (100 ng/100 μl in PBS), blocked with 1% BSA; GST-tagged PABP domains at 500 nM, 1 h at room temperature; HRP anti-GST, ABTS, OD at 405 nm; both purified
[2] = molecular target: T1, recombinant ADAM15 cytoplasmic domain (cytoADAM); experiment: ELISA; cytoADAM15 immobilised; GST-PABP fragment at 0–500 nM, otherwise the same conditions as the single-concentration assay; both purified
[3] = molecular target: GAL4-/PABP fusion protein, PABP 1-192 (human (cDNA from chondrocytes)) (UniProt P11940); experiment: two-hybrid; mammalian two-hybrid (Stratagene kit) in HEK 293 cells: PABP fragments in the pCMV-BD bait vector (GAL4 DNA-binding domain), cytoplasmic tail of ADAM15 in the pCMV-AD prey vector (NFκB transactivation domain), firefly luciferase reporter read after 48 h, normalised to Renilla luciferase
[4] = molecular target: GAL4-/PABP fusion protein, PABP 182-371 (human (cDNA from chondrocytes)) (UniProt P11940); experiment: as above
[5] = molecular target: GAL4-/PABP fusion protein, PABP 392-553 (human (cDNA from chondrocytes)) (UniProt P11940); experiment: as above
[6] = molecular target: GAL4-/PABP fusion protein, PABP 392-636 (human (cDNA from chondrocytes)) (UniProt P11940); experiment: as above

Molecule | binding [1] | binding [2] | binding [3] | binding [4] | binding [5] | binding [6]
GST-tagged PABP fragment 1-192 (RRM1 and 2) (from UniProt P11940 1-192) (domain or fragment) | no binding (tested: 500 nM) |  |  |  |  | 
GST-tagged PABP C-terminal PABC domain (553-636) (from UniProt P11940 553-636) (domain or fragment) | no binding (tested: 500 nM) | no binding (tested: 500 nM) |  |  |  | 
B1 |  |  | no binding | no binding | binds | binds
